The list shows a part of the results. The list includes weakly bound sequences.

In the experiment the target is T1, MBP-FoxP3dN (UniProt Q99JB6).
T1 sequence: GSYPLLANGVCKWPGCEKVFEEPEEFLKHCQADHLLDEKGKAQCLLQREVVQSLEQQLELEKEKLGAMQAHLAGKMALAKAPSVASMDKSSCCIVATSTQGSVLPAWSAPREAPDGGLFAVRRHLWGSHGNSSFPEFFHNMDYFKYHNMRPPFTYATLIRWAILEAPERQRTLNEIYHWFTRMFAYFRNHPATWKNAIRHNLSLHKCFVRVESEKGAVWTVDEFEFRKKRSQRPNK
Description: PD-seq (MBP pull-down with sequencing). The note with it: 20 mM Tris-HCl pH 7.5, 100 mM NaCl, 1.5 mM MgCl2, 0.4 uM protein, 0.1 uM dsDNA library, 30 min, room temperature, amylose pull-down; high values mean tight binding; double strand, one strand shown.
Regarding “GATGATTGTTCTCCCAGCTGATGAATTCAAAGTCTCGAGTAAACAAATTTTCCTAATCTTTCTGTTCAAGCGCCATCTAC”, the binding signal (RPM ratio (pull-down/input)) is 0.253.

Consider “GATGATTGTTCTCCCAGCTGATGAATTAATCAGTTCGAGTAAACAAATTTTCCTAATCTTTCTGTTCAAGCGCCATCTAC”, for which the binding signal (RPM ratio (pull-down/input)) was 0.427.

With “GATGATTGTTCTCCCAGCTGATGAATTTGGCGTTTCGAGTAAACAAATTTTCCTAATCTTTCTGTTCAAGCGCCATCTAC”, the binding signal (RPM ratio (pull-down/input)) turned out to be 3.37.

With “GATGATTGTTCTCCCAGCTGATGAATTGGGAGGCTCGAGTAAACAAATTTTCCTAATCTTTCTGTTCAAGCGCCATCTAC”, the binding signal (RPM ratio (pull-down/input)) is 0.412.

As for “GATGATTGTTCTCCCAGCTGATGAATTTGCTCAATCGAGTAAACAAATTTTCCTAATCTTTCTGTTCAAGCGCCATCTAC”, the binding signal (RPM ratio (pull-down/input)) came out at 0.348.

Take “GATGATTGTTCTCCCAGCTGATGAATTTTCACCGTCGAGTAAACAAATTTTCCTAATCTTTCTGTTCAAGCGCCATCTAC”: the binding signal (RPM ratio (pull-down/input)) worked out at 0.222.

For the sequence “GATGATTGTTCTCCCAGCTGATGAATTTCAGAGATCGAGTAAACAAATTTTCCTAATCTTTCTGTTCAAGCGCCATCTAC”, the binding signal (RPM ratio (pull-down/input)) was 0.218.

“GATGATTGTTCTCCCAGCTGATGAATTAACACCGTCGAGTAAACAAATTTTCCTAATCTTTCTGTTCAAGCGCCATCTAC”: the binding signal (RPM ratio (pull-down/input)) turned out to be 0.355.

Turning to “GATGATTGTTCTCCCAGCTGATGAATTCTGCAGATCGAGTAAACAAATTTTCCTAATCTTTCTGTTCAAGCGCCATCTAC”, the binding signal (RPM ratio (pull-down/input)) was 0.423.

As to “GATGATTGTTCTCCCAGCTGATGAATTTCAGAACTCGAGTAAACAAATTTTCCTAATCTTTCTGTTCAAGCGCCATCTAC”, the binding signal (RPM ratio (pull-down/input)) came out at 0.168.

Take “GATGATTGTTCTCCCAGCTGATGAATTCATTGTGTCGAGTAAACAAATTTTCCTAATCTTTCTGTTCAAGCGCCATCTAC”: the binding signal (RPM ratio (pull-down/input)) worked out at 3.5.

On to “GATGATTGTTCTCCCAGCTGATGAATTATTTGACTCGAGTAAACAAATTTTCCTAATCTTTCTGTTCAAGCGCCATCTAC”, for which the binding signal (RPM ratio (pull-down/input)) came to 0.481.

“GATGATTGTTCTCCCAGCTGATGAATTGTTCTGATCGAGTAAACAAATTTTCCTAATCTTTCTGTTCAAGCGCCATCTAC”: the binding signal (RPM ratio (pull-down/input)) came out at 0.32.

Regarding “GATGATTGTTCTCCCAGCTGATGAATTCAGTCACTCGAGTAAACAAATTTTCCTAATCTTTCTGTTCAAGCGCCATCTAC”, the binding signal (RPM ratio (pull-down/input)) came out at 0.774.

As to “GATGATTGTTCTCCCAGCTGATGAATTCCAGGATTCGAGTAAACAAATTTTCCTAATCTTTCTGTTCAAGCGCCATCTAC”, the binding signal (RPM ratio (pull-down/input)) was determined as 0.215.

Turning to “GATGATTGTTCTCCCAGCTGATGAATTGGATAATTCGAGTAAACAAATTTTCCTAATCTTTCTGTTCAAGCGCCATCTAC”, the binding signal (RPM ratio (pull-down/input)) is 0.314.

Regarding “GATGATTGTTCTCCCAGCTGATGAATTACCCACATCGAGTAAACAAATTTTCCTAATCTTTCTGTTCAAGCGCCATCTAC”, the binding signal (RPM ratio (pull-down/input)) was found to be 0.409.

Take “GATGATTGTTCTCCCAGCTGATGAATTCCGACCGTCGAGTAAACAAATTTTCCTAATCTTTCTGTTCAAGCGCCATCTAC”: the binding signal (RPM ratio (pull-down/input)) worked out at 0.43.

As for “GATGATTGTTCTCCCAGCTGATGAATTTAATTTCTCGAGTAAACAAATTTTCCTAATCTTTCTGTTCAAGCGCCATCTAC”, the binding signal (RPM ratio (pull-down/input)) is 1.98.

In the case of “GATGATTGTTCTCCCAGCTGATGAATTCTCTCCTTCGAGTAAACAAATTTTCCTAATCTTTCTGTTCAAGCGCCATCTAC”, the binding signal (RPM ratio (pull-down/input)) amounted to 0.179.

With “GATGATTGTTCTCCCAGCTGATGAATTGAGTAATTCGAGTAAACAAATTTTCCTAATCTTTCTGTTCAAGCGCCATCTAC”, the binding signal (RPM ratio (pull-down/input)) is 0.863.

Take “GATGATTGTTCTCCCAGCTGATGAATTATAGAGATCGAGTAAACAAATTTTCCTAATCTTTCTGTTCAAGCGCCATCTAC”: the binding signal (RPM ratio (pull-down/input)) came out at 0.289.

Consider “GATGATTGTTCTCCCAGCTGATGAATTAGTACTATCGAGTAAACAAATTTTCCTAATCTTTCTGTTCAAGCGCCATCTAC”, for which the binding signal (RPM ratio (pull-down/input)) is 0.906.

In the case of “GATGATTGTTCTCCCAGCTGATGAATTCGCCCTCTCGAGTAAACAAATTTTCCTAATCTTTCTGTTCAAGCGCCATCTAC”, the binding signal (RPM ratio (pull-down/input)) was 0.394.

Consider “GATGATTGTTCTCCCAGCTGATGAATTACGTACATCGAGTAAACAAATTTTCCTAATCTTTCTGTTCAAGCGCCATCTAC”, for which the binding signal (RPM ratio (pull-down/input)) came to 0.647.

For the sequence “GATGATTGTTCTCCCAGCTGATGAATTCGTTTACTCGAGTAAACAAATTTTCCTAATCTTTCTGTTCAAGCGCCATCTAC”, the binding signal (RPM ratio (pull-down/input)) stood at 4.99.

For the sequence “GATGATTGTTCTCCCAGCTGATGAATTGCGGGCGTCGAGTAAACAAATTTTCCTAATCTTTCTGTTCAAGCGCCATCTAC”, the binding signal (RPM ratio (pull-down/input)) is 0.866.

As for “GATGATTGTTCTCCCAGCTGATGAATTACATCGATCGAGTAAACAAATTTTCCTAATCTTTCTGTTCAAGCGCCATCTAC”, the binding signal (RPM ratio (pull-down/input)) is 0.436.

As for “GATGATTGTTCTCCCAGCTGATGAATTACAAACGTCGAGTAAACAAATTTTCCTAATCTTTCTGTTCAAGCGCCATCTAC”, the binding signal (RPM ratio (pull-down/input)) is 0.586.

“GATGATTGTTCTCCCAGCTGATGAATTTTCTAGGTCGAGTAAACAAATTTTCCTAATCTTTCTGTTCAAGCGCCATCTAC”: the binding signal (RPM ratio (pull-down/input)) was determined as 0.18.

As to “GATGATTGTTCTCCCAGCTGATGAATTCTTTTGCTCGAGTAAACAAATTTTCCTAATCTTTCTGTTCAAGCGCCATCTAC”, the binding signal (RPM ratio (pull-down/input)) is 0.373.

For “GATGATTGTTCTCCCAGCTGATGAATTTCGGTCCTCGAGTAAACAAATTTTCCTAATCTTTCTGTTCAAGCGCCATCTAC”, the binding signal (RPM ratio (pull-down/input)) was determined as 0.404.

Source of the values: article PMC12820563.
